Changes are numbered by the printed parent chain. Results are given in words; binding and its absence hold for the method and conditions named. Some entries that bind do so weakly or less than the wild type. Sequences can lack the tags named with a protein.
Target: T1, BD-Atg9 (S. cerevisiae) (UniProt Q12142)
T1 sequence: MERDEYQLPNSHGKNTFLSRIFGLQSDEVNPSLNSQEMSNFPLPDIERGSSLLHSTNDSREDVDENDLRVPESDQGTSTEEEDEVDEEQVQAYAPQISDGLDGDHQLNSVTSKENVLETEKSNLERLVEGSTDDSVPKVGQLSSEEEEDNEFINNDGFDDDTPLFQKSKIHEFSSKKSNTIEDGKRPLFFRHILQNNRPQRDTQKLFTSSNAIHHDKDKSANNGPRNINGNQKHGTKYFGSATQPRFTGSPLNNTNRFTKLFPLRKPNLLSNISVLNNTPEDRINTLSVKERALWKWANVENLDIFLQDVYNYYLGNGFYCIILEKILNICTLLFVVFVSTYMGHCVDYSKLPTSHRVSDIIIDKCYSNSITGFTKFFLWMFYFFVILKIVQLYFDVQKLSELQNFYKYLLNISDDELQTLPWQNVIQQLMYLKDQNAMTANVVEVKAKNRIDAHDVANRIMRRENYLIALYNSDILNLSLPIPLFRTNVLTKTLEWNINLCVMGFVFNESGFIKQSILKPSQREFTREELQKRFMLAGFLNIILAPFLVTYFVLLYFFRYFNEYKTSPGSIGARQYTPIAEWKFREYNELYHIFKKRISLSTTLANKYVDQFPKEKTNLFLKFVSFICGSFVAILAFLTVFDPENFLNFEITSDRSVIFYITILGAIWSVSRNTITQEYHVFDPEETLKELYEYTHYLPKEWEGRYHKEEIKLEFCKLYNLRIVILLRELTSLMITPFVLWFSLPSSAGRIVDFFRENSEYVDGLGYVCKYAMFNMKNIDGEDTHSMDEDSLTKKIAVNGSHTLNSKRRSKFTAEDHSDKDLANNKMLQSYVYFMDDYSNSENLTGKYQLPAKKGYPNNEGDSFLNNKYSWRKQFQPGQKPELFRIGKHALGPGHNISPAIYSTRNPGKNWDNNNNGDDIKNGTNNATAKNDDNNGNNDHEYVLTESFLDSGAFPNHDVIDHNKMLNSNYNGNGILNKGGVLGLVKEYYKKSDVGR
Assay: two-hybrid; BD-ATG9 with AD-ATG11 or mutants in multiple-knockout yeast YCY149 (lacking 25 ATG genes); growth on SMD -ura -leu -his with 1.5 mM 3-amino-triazol, 4-5 days at 30°C

B1: AD-Atg11 (protein, UniProt Q12527 1-1178)
chain: MADADEYSTAPTQQEITPLQTTATIINAISGECITTNVDFFVSLDKFKQFIARKWKIPPDQLLILLPYGNKLKPSMFKELLINRSFTLNDFYVYDRRLFSLVSKPTPTNLLTSKDSNPMNSPNSNDLTETLEYLIKNSHISQYQGSDTIMIKPMPSPLEDADVDLSRLNYHSVTSLLTTNLGWLSALEIDVHYFKSLIPDIIAHIKRIFDGLTVCSQYLKLYCFDVESLYNSNVQFLNQLVDNGMTSKWEKCFNDTLSKLTALEGDSLQKFINIESLLENEKSVKILNHSINGKLNKIKREIDENASFRDIITVNIDRLRQMFTPNESKFELEDQMAESFEVLVSEMRTRSRNVLDKEEEEFNSQEFLKSMNVMLEKDKKESVKTLFTISQALYSQIGELIDLKKSLQKHAVAILGNIAFTQMEILGIKRLLLNECNKDLELYKKYEVEFAQVEDLPLIYGLYLIEKYRRLSWFQQILSFISNFNQDLELFKQNELRTRNKWVKNFGSIATVFCEDLLSSSDFKRLNEYHSHTSPPNEDEEDENENSIANYRQDLVKVSQAIDNYMTQIKETDVSEPIIDLLSKTLFETKRFHIIYSNFKNNNNNSSNGNSISPEGSIALKSDDVVKGYKTRIKKLESLLHEFQYSDIGHWPQGVLNTHLKPFRGSATSINKKKFLGASVLLEPANISEVNIDSVSQANNHQIQELESNVDDLLHQLQLLKEENNRKSMQISEMGKKISDLEVEKTAYRETLTNLNQELARLTNEEQSHRTEIFTLNASFKKQLNDIISQDNEKIEKLTGDYDDVSKSRERLQMDLDESNKKHEQEVNLLKADIERLGKQIVTSEKSYAETNSSSMEKGEKFETIPLAEDPGRENQISAYTQTLQDRIFDIISTNIFILENIGLLLTFDNNNNIQIRRVKGLKKGTAQSNILDESTQMLDAHDNSLIKSPVFQKLKDEYELIKSVANGSEKDTQQSIFLGNITQLYDNKLYEVAVIRRFKDIETLAKKLTKENKIKRTLLERFQREKVTLRNFQIGDLALFLPTRENVNSVGSMSSSTSSLSSSFSSVDLSTPPPLDAMSIQSSPSVIHSNVINQASISGRDKNKLMRPWAAFTAFEESTRYFLKDEKGLTKGKEWFVGRIVTLEHFVADSPSNNPFRLPKGSVWFQVTAVVVSYQGV
With B1 the binding was “binds”.

B2: AD-Atg11_IA3 (protein, UniProt Q12527 1-575; P01094 2-53; Q12527 628-1178)
chain: MADADEYSTAPTQQEITPLQTTATIINAISGECITTNVDFFVSLDKFKQFIARKWKIPPDQLLILLPYGNKLKPSMFKELLINRSFTLNDFYVYDRRLFSLVSKPTPTNLLTSKDSNPMNSPNSNDLTETLEYLIKNSHISQYQGSDTIMIKPMPSPLEDADVDLSRLNYHSVTSLLTTNLGWLSALEIDVHYFKSLIPDIIAHIKRIFDGLTVCSQYLKLYCFDVESLYNSNVQFLNQLVDNGMTSKWEKCFNDTLSKLTALEGDSLQKFINIESLLENEKSVKILNHSINGKLNKIKREIDENASFRDIITVNIDRLRQMFTPNESKFELEDQMAESFEVLVSEMRTRSRNVLDKEEEEFNSQEFLKSMNVMLEKDKKESVKTLFTISQALYSQIGELIDLKKSLQKHAVAILGNIAFTQMEILGIKRLLLNECNKDLELYKKYEVEFAQVEDLPLIYGLYLIEKYRRLSWFQQILSFISNFNQDLELFKQNELRTRNKWVKNFGSIATVFCEDLLSSSDFKRLNEYHSHTSPPNEDEEDENENSIANYRQDLVKVSQAIDNYMTQIKETDVSNTDQQKVSEIFQSSKEKLQGDAKVVSDAFKKMASQDKDGKTTDADESEKHNYGYKTRIKKLESLLHEFQYSDIGHWPQGVLNTHLKPFRGSATSINKKKFLGASVLLEPANISEVNIDSVSQANNHQIQELESNVDDLLHQLQLLKEENNRKSMQISEMGKKISDLEVEKTAYRETLTNLNQELARLTNEEQSHRTEIFTLNASFKKQLNDIISQDNEKIEKLTGDYDDVSKSRERLQMDLDESNKKHEQEVNLLKADIERLGKQIVTSEKSYAETNSSSMEKGEKFETIPLAEDPGRENQISAYTQTLQDRIFDIISTNIFILENIGLLLTFDNNNNIQIRRVKGLKKGTAQSNILDESTQMLDAHDNSLIKSPVFQKLKDEYELIKSVANGSEKDTQQSIFLGNITQLYDNKLYEVAVIRRFKDIETLAKKLTKENKIKRTLLERFQREKVTLRNFQIGDLALFLPTRENVNSVGSMSSSTSSLSSSFSSVDLSTPPPLDAMSIQSSPSVIHSNVINQASISGRDKNKLMRPWAAFTAFEESTRYFLKDEKGLTKGKEWFVGRIVTLEHFVADSPSNNPFRLPKGSVWFQVTAVVVSYQGV
With B2 the binding was “binds”.

B3: AD-Atg11 YDLL (protein, UniProt Q12527 1-1178)
chain: B1 chain with Y468A, D516A, L517A, L526A
With B3 the binding was “binds weakly”.

B4: AD-Atg11 YDL (protein, UniProt Q12527 1-1178)
chain: B1 chain with Y468A, D516A, L517A
With B4 the binding was “binds”.

B5: AD-Atg11 DLL (protein, UniProt Q12527 1-1178)
chain: B1 chain with D516A, L517A, L526A
For B5, the binding was “binds”.

B6: AD-Atg11 DL (protein, UniProt Q12527 1-1178)
chain: B1 chain with D516A, L517A
In the case of B6, the binding is reported as “binds”.

B7: AD-Atg11 EDLLS (protein, UniProt Q12527 1-1178)
chain: B1 chain with E515A, D516A, L517A, L518A, S519A
With B7 the binding was “binds”.

B8: AD-Atg11 QQ (protein, UniProt Q12527 1-1178)
chain: B1 chain with Q475A, Q476A
In the case of B8, the binding is reported as “binds”.

B9: AD-Atg11 QNLNK (protein, UniProt Q12527 1-1178)
chain: B1 chain with Q493A, N494A, L496A, N500A, K501A
For B9, the binding was “binds”.

B10: AD-Atg11 TV (protein, UniProt Q12527 1-1178)
chain: B1 chain with T511A, V512A
B10 was tested, and the binding was “binds”.

B11: AD-atg11Δ455-535 (protein, UniProt Q12527)
chain: MADADEYSTAPTQQEITPLQTTATIINAISGECITTNVDFFVSLDKFKQFIARKWKIPPDQLLILLPYGNKLKPSMFKELLINRSFTLNDFYVYDRRLFSLVSKPTPTNLLTSKDSNPMNSPNSNDLTETLEYLIKNSHISQYQGSDTIMIKPMPSPLEDADVDLSRLNYHSVTSLLTTNLGWLSALEIDVHYFKSLIPDIIAHIKRIFDGLTVCSQYLKLYCFDVESLYNSNVQFLNQLVDNGMTSKWEKCFNDTLSKLTALEGDSLQKFINIESLLENEKSVKILNHSINGKLNKIKREIDENASFRDIITVNIDRLRQMFTPNESKFELEDQMAESFEVLVSEMRTRSRNVLDKEEEEFNSQEFLKSMNVMLEKDKKESVKTLFTISQALYSQIGELIDLKKSLQKHAVAILGNIAFTQMEILGIKRLLLNECNKDLELYKKYEVEFAQVEPNEDEEDENENSIANYRQDLVKVSQAIDNYMTQIKETDVSEPIIDLLSKTLFETKRFHIIYSNFKNNNNNSSNGNSISPEGSIALKSDDVVKGYKTRIKKLESLLHEFQYSDIGHWPQGVLNTHLKPFRGSATSINKKKFLGASVLLEPANISEVNIDSVSQANNHQIQELESNVDDLLHQLQLLKEENNRKSMQISEMGKKISDLEVEKTAYRETLTNLNQELARLTNEEQSHRTEIFTLNASFKKQLNDIISQDNEKIEKLTGDYDDVSKSRERLQMDLDESNKKHEQEVNLLKADIERLGKQIVTSEKSYAETNSSSMEKGEKFETIPLAEDPGRENQISAYTQTLQDRIFDIISTNIFILENIGLLLTFDNNNNIQIRRVKGLKKGTAQSNILDESTQMLDAHDNSLIKSPVFQKLKDEYELIKSVANGSEKDTQQSIFLGNITQLYDNKLYEVAVIRRFKDIETLAKKLTKENKIKRTLLERFQREKVTLRNFQIGDLALFLPTRENVNSVGSMSSSTSSLSSSFSSVDLSTPPPLDAMSIQSSPSVIHSNVINQASISGRDKNKLMRPWAAFTAFEESTRYFLKDEKGLTKGKEWFVGRIVTLEHFVADSPSNNPFRLPKGSVWFQVTAVVVSYQGV
With B11 the binding was “no binding”.
